This is an account of results in publication PMC5505151, “A proteomic analysis of LRRK2 binding partners reveals interactions with multiple signaling components of the WNT/PCP pathway” (Molecular Neurodegeneration, 2017).

Chains of the proteins cited; added tags and fusions are not shown. Lines headed by an entry give the natural chain unless they say otherwise; changes in a name come on top. Residues count along the entry.
UniProt Q5S007: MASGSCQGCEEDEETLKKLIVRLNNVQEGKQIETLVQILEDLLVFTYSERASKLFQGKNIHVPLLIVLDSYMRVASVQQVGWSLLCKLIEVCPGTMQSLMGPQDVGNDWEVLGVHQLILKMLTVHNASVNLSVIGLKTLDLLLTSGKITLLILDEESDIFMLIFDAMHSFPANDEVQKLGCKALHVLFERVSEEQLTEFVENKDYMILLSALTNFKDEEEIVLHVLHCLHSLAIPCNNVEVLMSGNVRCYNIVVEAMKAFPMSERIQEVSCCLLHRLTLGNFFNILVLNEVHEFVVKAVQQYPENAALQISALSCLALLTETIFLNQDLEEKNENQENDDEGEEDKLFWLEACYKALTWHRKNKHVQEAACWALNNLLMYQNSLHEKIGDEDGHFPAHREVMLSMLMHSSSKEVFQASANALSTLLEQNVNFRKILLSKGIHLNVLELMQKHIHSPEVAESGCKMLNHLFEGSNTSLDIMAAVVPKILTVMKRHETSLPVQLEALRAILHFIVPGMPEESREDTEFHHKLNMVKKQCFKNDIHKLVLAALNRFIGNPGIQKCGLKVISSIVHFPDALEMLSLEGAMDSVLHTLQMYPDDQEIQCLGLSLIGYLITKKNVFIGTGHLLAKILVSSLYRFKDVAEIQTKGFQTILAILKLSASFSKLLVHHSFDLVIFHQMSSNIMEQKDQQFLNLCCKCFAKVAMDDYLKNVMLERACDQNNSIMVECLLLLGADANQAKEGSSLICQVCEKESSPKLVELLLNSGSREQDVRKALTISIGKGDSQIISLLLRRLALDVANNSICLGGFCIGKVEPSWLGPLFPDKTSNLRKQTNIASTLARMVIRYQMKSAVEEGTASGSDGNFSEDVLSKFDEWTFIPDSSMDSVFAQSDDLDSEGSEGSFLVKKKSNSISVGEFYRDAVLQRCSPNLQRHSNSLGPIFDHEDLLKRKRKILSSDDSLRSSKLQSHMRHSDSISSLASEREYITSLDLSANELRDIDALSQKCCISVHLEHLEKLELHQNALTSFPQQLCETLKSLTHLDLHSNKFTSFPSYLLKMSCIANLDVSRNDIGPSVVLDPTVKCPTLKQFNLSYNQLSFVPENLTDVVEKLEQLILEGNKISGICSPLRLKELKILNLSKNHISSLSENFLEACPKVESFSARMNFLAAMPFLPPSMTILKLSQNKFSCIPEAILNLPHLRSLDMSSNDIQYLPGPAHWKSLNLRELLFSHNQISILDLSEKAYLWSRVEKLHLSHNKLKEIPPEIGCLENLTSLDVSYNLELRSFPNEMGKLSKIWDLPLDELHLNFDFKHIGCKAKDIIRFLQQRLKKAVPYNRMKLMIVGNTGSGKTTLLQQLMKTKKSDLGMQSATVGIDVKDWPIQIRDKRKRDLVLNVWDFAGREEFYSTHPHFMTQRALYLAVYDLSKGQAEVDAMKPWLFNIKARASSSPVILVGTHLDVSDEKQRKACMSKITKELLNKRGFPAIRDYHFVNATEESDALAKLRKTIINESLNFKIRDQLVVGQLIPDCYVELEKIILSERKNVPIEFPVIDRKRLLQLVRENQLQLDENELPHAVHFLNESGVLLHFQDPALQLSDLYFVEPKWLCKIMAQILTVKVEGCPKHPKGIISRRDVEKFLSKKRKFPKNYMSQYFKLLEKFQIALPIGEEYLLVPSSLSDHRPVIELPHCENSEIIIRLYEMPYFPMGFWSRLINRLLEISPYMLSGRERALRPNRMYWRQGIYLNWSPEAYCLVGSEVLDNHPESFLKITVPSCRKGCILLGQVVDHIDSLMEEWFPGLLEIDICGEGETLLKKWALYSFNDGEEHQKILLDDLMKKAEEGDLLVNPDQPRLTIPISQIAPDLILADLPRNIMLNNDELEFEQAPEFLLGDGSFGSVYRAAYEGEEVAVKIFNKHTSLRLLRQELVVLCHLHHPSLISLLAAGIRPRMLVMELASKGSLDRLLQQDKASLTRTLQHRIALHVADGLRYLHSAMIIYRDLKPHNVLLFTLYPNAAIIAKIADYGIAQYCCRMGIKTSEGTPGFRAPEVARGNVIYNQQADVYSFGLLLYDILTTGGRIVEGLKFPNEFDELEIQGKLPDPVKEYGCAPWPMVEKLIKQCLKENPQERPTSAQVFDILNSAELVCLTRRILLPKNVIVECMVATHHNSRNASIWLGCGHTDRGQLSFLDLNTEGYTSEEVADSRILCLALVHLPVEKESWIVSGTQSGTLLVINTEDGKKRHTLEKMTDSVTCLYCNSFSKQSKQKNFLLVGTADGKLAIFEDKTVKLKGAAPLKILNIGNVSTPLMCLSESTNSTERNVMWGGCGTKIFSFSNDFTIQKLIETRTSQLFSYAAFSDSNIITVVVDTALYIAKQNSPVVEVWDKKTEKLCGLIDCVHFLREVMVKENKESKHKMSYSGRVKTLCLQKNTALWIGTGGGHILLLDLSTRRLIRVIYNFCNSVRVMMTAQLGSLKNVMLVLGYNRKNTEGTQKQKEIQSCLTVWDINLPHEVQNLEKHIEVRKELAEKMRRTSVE
UniProt Q9Z138, residues 34-944: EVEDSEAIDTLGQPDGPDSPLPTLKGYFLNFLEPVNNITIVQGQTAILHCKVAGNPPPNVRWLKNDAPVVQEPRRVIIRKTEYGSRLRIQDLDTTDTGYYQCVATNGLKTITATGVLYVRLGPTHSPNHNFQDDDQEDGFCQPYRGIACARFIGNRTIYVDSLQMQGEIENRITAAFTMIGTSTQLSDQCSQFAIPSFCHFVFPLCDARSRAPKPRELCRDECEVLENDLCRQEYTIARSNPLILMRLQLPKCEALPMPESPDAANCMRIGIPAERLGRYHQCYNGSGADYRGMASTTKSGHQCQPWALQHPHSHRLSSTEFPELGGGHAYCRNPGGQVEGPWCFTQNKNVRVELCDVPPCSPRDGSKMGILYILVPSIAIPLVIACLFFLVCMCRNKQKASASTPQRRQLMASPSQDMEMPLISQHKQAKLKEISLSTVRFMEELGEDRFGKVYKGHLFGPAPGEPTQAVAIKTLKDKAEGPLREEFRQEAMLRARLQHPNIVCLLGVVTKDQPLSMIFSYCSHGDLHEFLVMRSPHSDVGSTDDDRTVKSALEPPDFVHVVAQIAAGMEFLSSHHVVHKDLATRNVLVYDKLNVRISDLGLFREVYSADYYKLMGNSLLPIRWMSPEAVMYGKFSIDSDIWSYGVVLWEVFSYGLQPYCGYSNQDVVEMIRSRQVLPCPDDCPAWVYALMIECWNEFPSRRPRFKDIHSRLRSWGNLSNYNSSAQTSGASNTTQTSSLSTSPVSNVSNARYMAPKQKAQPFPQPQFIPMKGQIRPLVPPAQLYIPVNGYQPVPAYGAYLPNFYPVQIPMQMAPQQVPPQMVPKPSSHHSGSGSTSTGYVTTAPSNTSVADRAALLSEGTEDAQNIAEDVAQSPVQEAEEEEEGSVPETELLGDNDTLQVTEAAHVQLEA
UniProt O35161, residues 30-3034: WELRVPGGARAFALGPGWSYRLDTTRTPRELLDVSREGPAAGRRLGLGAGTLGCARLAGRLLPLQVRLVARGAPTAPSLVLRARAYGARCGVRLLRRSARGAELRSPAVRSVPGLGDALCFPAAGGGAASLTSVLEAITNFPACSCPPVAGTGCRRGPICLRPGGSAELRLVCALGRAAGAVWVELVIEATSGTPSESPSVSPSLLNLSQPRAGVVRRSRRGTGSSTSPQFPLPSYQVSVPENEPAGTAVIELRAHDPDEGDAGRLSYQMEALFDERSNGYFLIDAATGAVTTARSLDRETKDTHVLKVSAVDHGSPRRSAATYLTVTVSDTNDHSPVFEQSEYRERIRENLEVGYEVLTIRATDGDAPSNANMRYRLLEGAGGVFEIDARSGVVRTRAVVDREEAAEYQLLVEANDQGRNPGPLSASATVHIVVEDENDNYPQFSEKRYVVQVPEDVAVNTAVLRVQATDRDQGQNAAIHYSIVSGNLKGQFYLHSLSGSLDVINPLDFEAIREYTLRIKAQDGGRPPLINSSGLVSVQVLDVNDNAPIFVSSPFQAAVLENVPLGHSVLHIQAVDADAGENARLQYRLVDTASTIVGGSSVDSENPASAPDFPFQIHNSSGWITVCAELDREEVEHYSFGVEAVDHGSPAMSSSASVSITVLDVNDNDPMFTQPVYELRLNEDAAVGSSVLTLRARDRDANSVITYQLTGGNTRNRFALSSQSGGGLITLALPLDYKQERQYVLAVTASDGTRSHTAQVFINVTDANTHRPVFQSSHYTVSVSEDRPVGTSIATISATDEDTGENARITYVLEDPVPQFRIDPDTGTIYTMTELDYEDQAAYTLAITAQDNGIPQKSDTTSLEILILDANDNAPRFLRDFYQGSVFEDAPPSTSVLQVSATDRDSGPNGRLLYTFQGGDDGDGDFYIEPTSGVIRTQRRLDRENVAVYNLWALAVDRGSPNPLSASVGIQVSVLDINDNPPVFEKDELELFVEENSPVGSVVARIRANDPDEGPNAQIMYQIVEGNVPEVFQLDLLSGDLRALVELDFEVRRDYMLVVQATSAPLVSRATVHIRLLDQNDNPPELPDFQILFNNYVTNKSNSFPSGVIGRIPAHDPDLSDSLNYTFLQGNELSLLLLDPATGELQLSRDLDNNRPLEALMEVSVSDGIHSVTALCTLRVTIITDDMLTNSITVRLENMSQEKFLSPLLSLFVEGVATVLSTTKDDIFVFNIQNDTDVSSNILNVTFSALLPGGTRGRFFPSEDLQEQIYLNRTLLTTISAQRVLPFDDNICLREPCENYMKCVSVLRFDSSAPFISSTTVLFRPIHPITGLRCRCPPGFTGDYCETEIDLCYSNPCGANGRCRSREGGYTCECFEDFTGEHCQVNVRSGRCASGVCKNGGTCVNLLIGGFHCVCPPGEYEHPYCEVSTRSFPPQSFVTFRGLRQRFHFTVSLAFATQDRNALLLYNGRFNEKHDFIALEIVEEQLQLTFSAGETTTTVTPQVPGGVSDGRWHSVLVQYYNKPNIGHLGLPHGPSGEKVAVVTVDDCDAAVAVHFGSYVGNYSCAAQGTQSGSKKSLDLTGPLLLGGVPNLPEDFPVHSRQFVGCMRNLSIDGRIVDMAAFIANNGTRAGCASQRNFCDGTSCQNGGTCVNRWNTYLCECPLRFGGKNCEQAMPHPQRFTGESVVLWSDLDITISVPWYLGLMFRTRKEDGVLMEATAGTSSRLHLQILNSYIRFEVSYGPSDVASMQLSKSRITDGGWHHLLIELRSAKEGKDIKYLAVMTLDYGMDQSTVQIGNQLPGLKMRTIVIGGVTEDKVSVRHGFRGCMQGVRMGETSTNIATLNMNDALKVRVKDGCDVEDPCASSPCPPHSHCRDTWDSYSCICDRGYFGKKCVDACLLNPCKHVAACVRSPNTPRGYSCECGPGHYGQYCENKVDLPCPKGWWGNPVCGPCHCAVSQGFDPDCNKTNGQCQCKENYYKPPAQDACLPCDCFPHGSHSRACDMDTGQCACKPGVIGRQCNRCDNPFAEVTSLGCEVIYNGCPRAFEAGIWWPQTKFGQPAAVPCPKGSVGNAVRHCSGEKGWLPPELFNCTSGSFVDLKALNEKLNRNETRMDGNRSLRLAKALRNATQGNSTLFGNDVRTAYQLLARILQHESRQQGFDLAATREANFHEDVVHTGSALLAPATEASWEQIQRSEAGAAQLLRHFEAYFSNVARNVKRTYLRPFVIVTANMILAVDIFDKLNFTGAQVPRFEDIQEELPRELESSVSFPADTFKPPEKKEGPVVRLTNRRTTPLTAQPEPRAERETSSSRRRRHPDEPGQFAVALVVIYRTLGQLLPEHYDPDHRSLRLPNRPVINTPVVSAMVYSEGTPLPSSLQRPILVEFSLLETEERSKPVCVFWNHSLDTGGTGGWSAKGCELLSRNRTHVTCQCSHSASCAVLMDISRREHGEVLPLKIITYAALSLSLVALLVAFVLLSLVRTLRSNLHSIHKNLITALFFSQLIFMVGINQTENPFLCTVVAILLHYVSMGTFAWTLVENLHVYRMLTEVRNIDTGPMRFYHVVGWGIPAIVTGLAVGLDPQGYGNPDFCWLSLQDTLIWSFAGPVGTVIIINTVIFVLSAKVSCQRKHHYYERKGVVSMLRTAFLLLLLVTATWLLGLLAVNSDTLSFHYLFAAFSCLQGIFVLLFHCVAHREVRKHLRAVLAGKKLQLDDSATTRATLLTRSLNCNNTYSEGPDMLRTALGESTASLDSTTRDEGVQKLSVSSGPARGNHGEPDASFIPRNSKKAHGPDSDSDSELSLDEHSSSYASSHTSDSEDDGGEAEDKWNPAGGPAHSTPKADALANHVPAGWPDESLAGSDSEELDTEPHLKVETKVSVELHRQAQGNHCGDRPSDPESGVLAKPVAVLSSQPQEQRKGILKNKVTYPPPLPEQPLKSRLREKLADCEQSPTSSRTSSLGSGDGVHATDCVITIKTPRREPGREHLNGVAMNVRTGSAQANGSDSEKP

Where two headings read alike, the source gives them in different places. Results are given in words; binding and its absence hold for the method and conditions named. Binding seen in cells or lysates may run through a third protein. Some entries that bind do so weakly or less than the wild type. For some of these results: Sequences can lack the tags named with a protein.

The target of experiment [1] is LRRK2 (wild type, transiently overexpressed; tagged construct not told for the experiment) (UniProt Q5S007). The experiment is described as follows: co-IP; proteins transiently overexpressed in HEK293T, lysed 24-48 h post transfection in NP40 lysis buffer, pre-cleared, 1 ug antibody (GFP, C-MYC, V5 or FLAG) and DynaBeads, 5 washes, immunoblot. In general terms: A western blot detects proteins with antibodies after separation by electrophoresis.

For experiment [2], the target named is V5-Lrrk2 WT (UniProt Q5S007). The experiment is described as above.
The target in experiment [3] is LRRK2 R1441C (V5) (UniProt Q5S007). The experiment is described as above.
Experiment [4] has as its target LRRK2 G2019S (V5) (UniProt Q5S007). The experiment is described as above.
The target in experiment [5] is LRRK2 Y1699C (V5) (UniProt Q5S007). Described as above.
For experiment [6], the target named is LRRK2 (wild type, transiently overexpressed; tagged construct not told for the experiment) (UniProt Q5S007). The experiment can be described thus: co-IP; data not shown; transient overexpression in HEK293T and immunoprecipitation of LRRK2.
The target is the same in experiment [7]. The experiment is described as follows: co-IP; proteins transiently overexpressed in HEK293T, lysed 24-48 h post transfection in NP40 lysis buffer, pre-cleared, 1 ug antibody (GFP, C-MYC, V5 or FLAG) and DynaBeads, 5 washes, immunoblot. The source holds these as a separate data set.
Experiment [8] addresses LRRK2 R1441C (V5) (UniProt Q5S007). The description is as above. The source holds these as a separate data set.
The target in experiment [9] is LRRK2 G2019S (V5) (UniProt Q5S007). Described as above. This is another data set of the same source.
The target of experiment [10] is V5-Lrrk2 WT (UniProt Q5S007). Described as above. This is another data set of the same source.
The target of experiment [11] is LRRK2 Y1699C (V5) (UniProt Q5S007). The description is as above. The source holds these as a separate data set.

Regarding “Ror2-Flag (from UniProt Q9Z138 34-944) (receptor)”, in [1], the binding result is on record as “no binding”.
For “Celsr1-EGFP (from UniProt O35161 30-3034) (receptor)”, the binding entry in experiment [2] is given as “binds”.
On to “CELSR1 (transiently overexpressed; tagged construct not told for the experiment) (from UniProt O35161 30-3034) (receptor)”, for which the binding result in experiment [1], in [3], in [4], in experiment [2] and in experiment [5] was “binds” each time.

B1: Flotillin1-GFP (protein, UniProt O75955 1-427)
chain: MFFTCGPNEAMVVSGFCRSPPVMVAGGRVFVLPCIQQIQRISLNTLTLNVKSEKVYTRHGVPISVTGIAQVKIQGQNKEMLAAACQMFLGKTEAEIAHIALETLEGHQRAIMAHMTVEEIYKDRQKFSEQVFKVASSDLVNMGISVVSYTLKDIHDDQDYLHSLGKARTAQVQKDARIGEAEAKRDAGIREAKAKQEKVSAQYLSEIEMAKAQRDYELKKAAYDIEVNTRRAQADLAYQLQVAKTKQQIEEQRVQVQVVERAQQVAVQEQEIARREKELEARVRKPAEAERYKLERLAEAEKSQLIMQAEAEAASVRMRGEAEAFAIGARARAEAEQMAKKAEAFQLYQEAAQLDMLLEKLPQVAEEISGPLTSANKITLVSSGSGTMGAAKVTGEVLDILTRLPESVERLTGVSISQVNHKPLRTA
On to B1, for which the binding result in experiment [6] was “binds weakly”.

B2: Vangl2-HA (protein, UniProt Q91ZD4 1-521)
chain: MDTESQYSGYSYKSGHSRSSRKHRDRRDRHRSKSRDGSRGDKSVTIQAPGEPLLDNESTRGDERDDNWGETTTVVTGTSEHSISHDDLTRIAKDMEDSVPLDCSRHLGVAAGAILALLSFLTPLAFLLLPPLLWREELEPCGTACEGLFISVAFKLLILLLGSWALFFRRPKASLPRVFVLRALLMVLVFLLVISYWLFYGVRILDARERSYQGVVQFAVSLVDALLFVHYLAVVLLELRQLQPQFTLKVVRSTDGASRFYNVGHLSIQRVAVWILEKYYHDFPVYNPALLNLPKSVLAKKVSGFKVYSLGEENSTNNSTGQSRAVIAAAARRRDNSHNEYYYEEAEHERRVRKRRARLVVAVEEAFTHIKRLQEEEQKNPREVMDPREAAQAIFASMARAMQKYLRTTKQQPYHTMESILQHLEFCITHDMTPKAFLERYLAAGPTIQYHKERWLAKQWTLVSEEPVTNGLKDGIVFLLKRQDFSLVVSTKKVPFFKLSEEFVDPKSHKFVMRLQSETSV
As to B2, in [7], the binding result is “no binding”.

B3: Flotillin2-GFP (protein, UniProt Q14254 1-428)
chain: MGNCHTVGPNEALVVSGGCCGSDYKQYVFGGWAWAWWCISDTQRISLEIMTLQPRCEDVETAEGVALTVTGVAQVKIMTEKELLAVACEQFLGKNVQDIKNVVLQTLEGHLRSILGTLTVEQIYQDRDQFAKLVREVAAPDVGRMGIEILSFTIKDVYDKVDYLSSLGKTQTAVVQRDADIGVAEAERDAGIREAECKKEMLDVKFMADTKIADSKRAFELQKSAFSEEVNIKTAEAQLAYELQGAREQQKIRQEEIEIEVVQRKKQIAVEAQEILRTDKELIATVRRPAEAEAHRIQQIAEGEKVKQVLLAQAEAEKIRKIGEAEAAVIEAMGKAEAERMKLKAEAYQKYGDAAKMALVLEALPQIAAKIAAPLTKVDEIVVLSGDNSKVTSEVNRLLAELPASVHALTGVDLSKIPLIKKATGVQV
Consider B3, for which the binding entry in experiment [7] is “binds”.

B4: Prickle1-ECFP (natural protein, UniProt Q3U5C7 1-832, looked up)
chain: MPLEMEPKMSKLVFGCQRSSTSDDDSGCALEEYAWVPPGLRPEQIQLYFACLPEEKVPYVNSPGEKHRIKQLLYQLPPHDNEVRYCQSLSEEEKKELQVFSAQRKKEALGRGTIKLLSRAVMHAVCEQCGLQMNGGEVAVFASRAGPGVCWHPSCFVCFTCNELLVDLIYFYQDGKIHCGRHHAELLKPRCSACDEIIFADECTEAEGRHWHMKHFCCLECETVLGGQRYIMKDGRPFCCGCFESLYAEYCETCGEHIGVDHAQMTYDGQHWHATEACFSCAQCKASLLGCPFLPKQGQIYCSKTCSLGEDIHASDSSDSAFQSARSRDSRRSVRMGRSSRSADQCRQSLLLSPALNYKFPGLSGNADDTLSRKLDDVSLASRQGAGFANEEFWKARVEQEASEDPEEWAEHEDYMTQLLLKFGDKNLFQQQSSEVDPRASEHWIPDNMVTNKPEVKPNHQGLASKKYQSDMYWAQSQDGLGDSAYGSHPGPASSRRLQELDLDHGAAGYTHDQSQWYEDSLECLSDLKPEQSIRDSMDSLALSNITGASVDGESKPRPSLYSLQNFEEIEAEDCEKMSNMGTLNSSMLHRSAESLQSLNSGLCPEKILPEEKPAHLPVLRRSKSQSRPQQVKFSDDVIDNGSYDIEIRQPPMSERTRRRAYHFEERGSRPHHHRHRRSRKSRSDNALNLVTERKYSAKDRLRLYTPDNYEKFIQNKSARELQAYMQNANLYSQYAHATSDYALQNPGMNRFLGLCGEDDDSWCSSSTSSSDSEEEGYFLGQPIPQPRPQRFTYYTDDLSSPASALPTPQFTQRTTKSKKKKGHKGKNCIIS
Take B4: the binding entry in experiment [7], in experiment [8], in experiment [9], in experiment [10] and in experiment [11] was “binds” each time.

B5: Flag-JIP3 (protein, UniProt Q9ESN9 1-1337)
chain: MMEIQMDEGGGVVVYQDDYCSGSVMSERVSGLAGSIYREFERLIHCYDEEVVKELMPLVVNVLENLDSVLSENQEHEVELELLREDNEQLLTQYEREKALRKQAEEKFIEFEDALEQEKKELQIQVEHYEFQTRQLELKAKNYADQISRLEERESEMKKEYNALHQRHTEMIQTYVEHIERSKMQQVGGSGQTESSLPGRSRKERPTSLNVFPLADGMVRAQMGGKLVPAGDHWHLSDLGQLQSSSSYQCPNDEMSESGQSSAAATPSTTGTKSNTPTSSVPSAAVTPLNESLQPLGDYVSVTKNNKQAREKRNSRNMEVQVTQEMRNVSIGMGSSDEWSDVQDIIDSTPELDVCPETRLERTGSSPTQGIVNKAFGINTDSLYHELSTAGSEVIGDVDEGADLLGEFSVRDDFFGMGKEVGNLLLENSQLLETKNALNVVKNDLIAKVDQLSGEQEVLKGELEAAKQAKVKLENRIKELEEELKRVKSEAVTARREPREEVEDVSSYLCTELDKIPMAQRRRFTRVEMARVLMERNQYKERLMELQEAVRWTEMIRASREHPSVQEKKKSTIWQFFSRLFSSSSSPPPAKRSYPSVNIHYKSPTAAGFSQRRSHALCQISAGSRPLEFFPDDDCTSSARREQKREQYRQVREHVRNDDGRLQACGWSLPAKYKQLSPNGGQEDTRMKNVPVPVYCRPLVEKDPSTKLWCAAGVNLSGWKPHEEDSSNGPKPVPGRDPLTCDREGEGEPKSTHPSPEKKKAKETPEADATSSRVWILTSTLTTSKVVIIDANQPGTIVDQFTVCNAHVLCISSIPAASDSDYPPGEMFLDSDVNPEDSGADGVLAGITLVGCATRCNVPRSNCSSRGDTPVLDKGQGDVATTANGKVNPSQSTEEATEATEVPDPGPSESEATTVRPGPLTEHVFTDPAPTPSSSTQPASENGSESNGTIVQPQVEPSGELSTTTSSAAPTMWLGAQNGWLYVHSAVANWKKCLHSIKLKDSVLSLVHVKGRVLVALADGTLAIFHRGEDGQWDLSNYHLMDLGHPHHSIRCMAVVNDRVWCGYKNKVHVIQPKTMQIEKSFDAHPRRESQVRQLAWIGDGVWVSIRLDSTLRLYHAHTHQHLQDVDIEPYVSKMLGTGKLGFSFVRITALLIAGNRLWVGTGNGVVISIPLTETVVLHRGQLLGLRANKTSPTSGEGTRPGGIIHVYGDDSSDKAASSFIPYCSMAQAQLCFHGHRDAVKFFVSVPGNVLATLNGSVLDSPSEGPGPAAPAADAEGQKLKNALVLSGGEGYIDFRIGDGEDDETEECAGDVNQTKPSLSKAERSHIIVWQVSYTPE
On to B5, for which the binding result in experiment [7] is listed as “binds”.
